The source of these data is publication PMC1459871.

One assay deals with T1, GST-YWHAH (1-80) (human) (UniProt Q04917).
T1 sequence: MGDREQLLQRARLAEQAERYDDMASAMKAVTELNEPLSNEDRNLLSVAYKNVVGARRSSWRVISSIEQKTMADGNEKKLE
Briefly: pull-down; GST-YWHAH constructs or GST alone on glutathione-sepharose, incubated 12 h at 4° with HEK 293 total cell extract expressing PIG-2; washed with NETN (300 mM NaCl, 0.5% NP-40); western blot; only the target purified.

In another assay the target is T2, GST-YWHAH (1-60) (human) (UniProt Q04917).
T2 sequence: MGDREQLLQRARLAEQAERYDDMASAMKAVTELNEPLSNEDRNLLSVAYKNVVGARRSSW
The assay is described as above.

Assay [1] addresses T3, GST-YWHAH (1-100) (human) (UniProt Q04917).
T3 sequence: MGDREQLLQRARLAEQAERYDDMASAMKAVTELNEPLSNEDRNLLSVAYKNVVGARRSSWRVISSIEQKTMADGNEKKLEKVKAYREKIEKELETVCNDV
The assay is described as above.

Assay [2] addresses T4, GST-YWHAH full length (1-247) (human) (UniProt Q04917).
T4 sequence: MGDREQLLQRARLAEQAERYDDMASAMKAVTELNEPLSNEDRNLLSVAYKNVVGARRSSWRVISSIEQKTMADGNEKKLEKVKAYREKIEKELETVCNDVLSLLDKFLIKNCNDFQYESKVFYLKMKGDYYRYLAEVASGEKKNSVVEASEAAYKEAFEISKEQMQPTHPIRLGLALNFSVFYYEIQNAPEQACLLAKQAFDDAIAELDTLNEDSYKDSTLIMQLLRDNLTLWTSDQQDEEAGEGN
The description is as above.

Assay [3] addresses T5, Myc-tagged YWHAH (tyrosine 3-monooxygenase/tryptophan 5-monooxygenase activation protein, eta polypeptide; 14-3-3 eta), full length (human) (UniProt Q04917).
T5 sequence: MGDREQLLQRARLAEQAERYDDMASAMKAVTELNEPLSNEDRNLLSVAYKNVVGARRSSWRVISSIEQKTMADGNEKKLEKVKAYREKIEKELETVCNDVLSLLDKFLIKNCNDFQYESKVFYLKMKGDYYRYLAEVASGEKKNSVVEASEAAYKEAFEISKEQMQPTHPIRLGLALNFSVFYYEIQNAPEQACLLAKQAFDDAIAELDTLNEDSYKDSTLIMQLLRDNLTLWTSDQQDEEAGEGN
In words: co-IP; HEK 293 co-transfected with FLAG-PIG-2 and YWHAH-Myc-His; RIPA lysate; IP with anti-Myc or anti-FLAG mAb and protein A-Sepharose, 4 h at 4°C; blot with the other antibody.

Assay [4] concerns the target T6, FLAG epitope-tagged PIG-2 (proliferation-inducing gene 2; gremlin 1), full length (human) (UniProt O60565).
T6 sequence: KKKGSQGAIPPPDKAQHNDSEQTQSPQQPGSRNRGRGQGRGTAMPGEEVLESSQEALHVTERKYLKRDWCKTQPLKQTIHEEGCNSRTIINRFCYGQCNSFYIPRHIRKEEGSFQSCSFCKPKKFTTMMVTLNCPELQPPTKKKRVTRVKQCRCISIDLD
The assay is described as above.

No constants are given. Whether binding was seen depends on the method and setting. Binding seen in cells or lysates may run through a third protein. Some binding calls cover weakened binding; strength is not graded here. Sequences can lack the tags named with a protein.

B1: FLAG epitope-tagged PIG-2 (proliferation-inducing gene 2; gremlin 1), full length (protein, UniProt O60565-1 25-184)
chain: KKKGSQGAIPPPDKAQHNDSEQTQSPQQPGSRNRGRGQGRGTAMPGEEVLESSQEALHVTERKYLKRDWCKTQPLKQTIHEEGCNSRTIINRFCYGQCNSFYIPRHIRKEEGSFQSCSFCKPKKFTTMMVTLNCPELQPPTKKKRVTRVKQCRCISIDLD
Regarding B1, the binding entry is “binds” with GST-YWHAH (1-80) (human); “no binding” with GST-YWHAH (1-60) (human); “binds” in assay [1]; “binds” in assay [2]; “binds” in assay [3].

B2: Myc-tagged YWHAH (tyrosine 3-monooxygenase/tryptophan 5-monooxygenase activation protein, eta polypeptide; 14-3-3 eta), full length (protein, UniProt Q04917 1-246)
chain: MGDREQLLQRARLAEQAERYDDMASAMKAVTELNEPLSNEDRNLLSVAYKNVVGARRSSWRVISSIEQKTMADGNEKKLEKVKAYREKIEKELETVCNDVLSLLDKFLIKNCNDFQYESKVFYLKMKGDYYRYLAEVASGEKKNSVVEASEAAYKEAFEISKEQMQPTHPIRLGLALNFSVFYYEIQNAPEQACLLAKQAFDDAIAELDTLNEDSYKDSTLIMQLLRDNLTLWTSDQQDEEAGEGN
As to B2, the binding entry in assay [4] is reported as “binds”.
